# According to PMC10668032:
# The list shows a part of the results. At the low end of the ranking, values are background and their order means little.
# Biological target: SIX1 homeodomain (reference allele) (UniProt Q15475)
# Experiment: universal protein binding microarray
# Details: Universal all-10-mer PBM (8x60K, AMADID 030236), 300 nM GST-tagged protein, Alexa Fluor 488 anti-GST; buffer, salt, pH and temperature not stated; high values mean tight binding; most listed sequences are background and not binding sites; double strand, one strand shown
row,Sequence,binding signal [E-score]
1,GAAATCTA,-0.0547
2,GACTGAGA,-0.0604
3,GCATAGAA,-0.102
4,GTGTCGGA,0.322
5,ACTCTGCC,-0.221
6,GAACTGTC,-0.121
7,AGATCTTG,0.19
8,ATAACGAA,0.0359
9,AGCATTTA,-0.212
10,CAGCAAAA,-0.155
11,CGTGGGCA,-0.0797
12,ACTGCTCT,-0.0541
13,ACCTGTCT,0.0795
14,GAGGACGC,-0.127
15,ATGTGAAG,-0.00791
16,AACCTCCA,-0.207
17,AATGTTAT,-0.085
18,AATCACTC,-0.0897
19,ACAAGTGT,-0.0289
20,ACCGGTCT,-0.0396
21,ACAAGTGG,-0.196
22,CAATTTTA,-0.27
23,ATCGAGAG,0.0886
24,CACCAGTG,0.0929
25,ACGGCGGG,0.149

row,Sequence,binding signal [E-score]
1,ATTTGTAG,-0.0383
2,AAAGTGCA,-0.244
3,ACGCCAGC,-0.183
4,AGGCTGCA,-0.192
5,ACATTTGC,-0.183
6,GCTTTGGA,-0.0772
7,CATGTGAC,-0.121
8,CAAACAAA,-0.133
9,TTCAGAAA,-0.254
10,GTACAGTA,-0.0218
11,AGCTCCCC,-0.0393
12,CGGGGACA,-0.0607
13,CGTCCGTA,-0.154
14,CCCCGGCA,0.0341
15,AGATGGAC,-0.0838
16,GCCAGCGA,-0.00521
17,ACGGAATC,0.0538
18,AAGGTAAG,-0.0522
19,CATACACC,0.256
20,GATGGGCA,0.0662
21,CTTAACTC,-0.208
22,CACGTACA,0.137
23,GGCGACCC,-0.0127
24,ATCGGAAA,0.159
25,ACGCGCTC,-0.173

row,Sequence,binding signal [E-score]
1,TCTCGTAA,0.045
2,CCCCCTAA,-0.0311
3,GTGGATCA,0.4
4,ACTCAGAA,-0.204
5,GGCGCGTA,-0.00413
6,GGACACTA,0.132
7,CATCAAGG,-0.085
8,GAGCTTTA,-0.245
9,CAGCAGCG,-0.213
10,ATGAACCC,0.103
11,CATAATAG,0.0415
12,AGTTGACC,-0.115
13,AGGATGAA,-0.0527
14,AATGGGTA,0.125
15,AAAGCGAC,-0.185
16,ATCCTGTG,0.254
17,ATGTTTTA,-0.282
18,ATGCGCCG,0.0222
19,CAAGCACC,-0.0665
20,ATGACGGG,0.0568
21,CCTAAGTA,-0.0204
22,AGAATCGA,-0.108
23,CACCCTAA,0.132
24,GGCGTCAC,-0.152
25,CCGTCATA,0.0967

row,Sequence,binding signal [E-score]
1,CGAATCCG,0.24
2,CTCAGCTC,-0.0319
3,CAACGATG,-0.149
4,CTCATTTC,-0.111
5,CGGGCAAG,0.0528
6,AATGCTCA,-0.164
7,AGCAGCTC,-0.148
8,GCCAGACA,0.0194
9,AAGACGGA,0.0222
10,AGCCTTCG,-0.0779
11,CCGGACTC,-0.0916
12,GGCTCTCA,-0.0772
13,ACATACGG,0.0406
14,GTGTGGAA,-0.14
15,TTACGTAA,-0.257
16,GACGAATC,-0.018
17,CACGCGCC,-0.00834
18,ACCCTGCA,0.125
19,GGCATCAA,-0.0624
20,ATAAGGAG,0.0371
21,GACGGAGC,-0.188
22,CATAGCTA,0.00991
23,GCAACAAC,-0.188
24,AACGTGTC,-0.0457
25,CCTTGTTA,-0.0485

row,Sequence,binding signal [E-score]
1,AATGCAGG,-0.00407
2,GCCTGAAA,-0.149
3,CTTTGAAC,-0.0801
4,CTGTCTCA,0.129
5,AAACCCTG,0.068
6,AGGTCATG,-0.21
7,TCTCAAAA,0.0114
8,AGTGCCAG,-0.172
9,ACGAAGAG,0.0358
10,GGTCACTA,-0.241
11,CCTAACCG,-0.0238
12,AGATGCCT,0.0189
13,GATAAAGC,-0.168
14,ATCAACGC,0.0673
15,GATAGAGA,0.0921
16,TCTTTACA,-0.134
17,CAGTCGGA,-0.118
18,AGTACGAC,-0.14
19,CTCGAATC,-0.0168
20,CTATGCGA,-0.103
21,ATAGCAAG,0.0671
22,CCTCTGTC,-0.00682
23,TATGAGAA,0.102
24,ACTTCCAT,-0.00885
25,CCTTTCAA,-0.121

row,Sequence,binding signal [E-score]
1,GCCACCGC,-0.127
2,ATATTCGC,0.158
3,ACCACCAA,-0.0491
4,TATTGCAA,0.125
5,AAAACAAG,-0.115
6,AACTCAAA,-0.237
7,ATGTAACC,-0.0718
8,CTATCCCC,0.321
9,ATGGTACA,0.00155
10,CGAGTGGC,0.00885
11,TCCTGACA,0.133
12,AGTAAGAT,0.191
13,AAAAATGT,-0.321
14,AGGTGCGG,0.00962
15,CTTTTAAC,-0.244
16,AGTCGTAA,-0.112
17,AGTCTGGG,-0.179
18,CGTAGCAC,-0.0379
19,AAAATAGT,-0.125
20,CCCATTAA,-0.184
21,CTAGTCAA,-0.148
22,CTGCTAAC,-0.123
23,CATAATAA,0.11
24,CGTGGACA,0.0282
25,GGGACGAC,-0.185

row,Sequence,binding signal [E-score]
1,ACGGTAGA,0.0116
2,GATTGTAC,-0.121
3,CGCAAAAC,-0.00699
4,ACAGTTCA,-0.143
5,GACCTAAA,-0.204
6,CGATGGGC,-0.12
7,GTGCACGA,-0.0526
8,AGGACCGA,-0.153
9,AACAATAT,0.253
10,ACCTACTG,-0.0428
11,GCAAGACA,-0.17
12,ACCTAGGG,0.118
13,ACCCTGAG,0.144
14,GACGGCAA,-0.0296
15,GGCTCTAA,0.117
16,GTCTTGAA,-0.227
17,AACCACCC,-0.127
18,CACGTACG,-0.0874
19,AAAGTAGA,0.115
20,CCATGTTC,-0.11
21,AGGTGCAT,-0.18
22,CTAGATGC,0.153
23,CTTCAACA,-0.0206
24,GGAATATA,0.0955
25,ATACAGAT,0.292

row,Sequence,binding signal [E-score]
1,GCTATCAA,0.312
2,CTACCTTC,-0.0237
3,CTTAAATC,-0.112
4,AACTGTTG,-0.204
5,AAAACAGT,-0.171
6,CTCGGTAA,-0.0852
7,ACAAAGAT,0.0452
8,CTCGCTTC,-0.096
9,AACGTAGC,-0.308
10,ACACACTA,-0.0503
11,AATCTAAT,-0.194
12,AGCCCTAT,0.0563
13,ATACTACA,0.348
14,CCCCTGAG,0.0921
15,TACTGTCA,0.0043
16,ATAATAGC,0.106
17,CGTGAATC,0.0225
18,ACAATACT,0.234
19,AACCCAGG,0.012
20,GCGATACA,0.376
21,AAGGATCT,0.267
22,AGTCCTGC,-0.208
23,ACGGGCAG,0.0196
24,ACGCCGAT,0.182
25,GTCGAGCA,-0.241

row,Sequence,binding signal [E-score]
1,GGCCGAGA,-0.113
2,CGAAAAAG,-0.155
3,GACAAAAA,-0.238
4,GCACAAAC,-0.144
5,AGACAATC,-0.0257
6,CTATTTTC,-0.056
7,AGCTATCC,0.149
8,GATTGGAA,-0.0376
9,CTACTTAA,-0.135
10,CTGGTACA,0.0187
11,CCCCGCAA,-0.03
12,ATGCCTCC,-0.124
13,ACGGCCCA,-0.00878
14,ACGGGTAA,-0.00364
15,AGAGCCCA,-0.226
16,AACAGGGG,-0.0256
17,GGGTAACA,0.0846
18,ACGGTTAT,0.0573
19,ATGAGGGC,0.0539
20,TGAGCGAA,-0.141
21,ACGCGCAA,-0.043
22,AATGAACA,-0.108
23,CTGGCTAC,0.0132
24,AATCGGAC,-0.137
25,CCGGGAGG,-0.0434

row,Sequence,binding signal [E-score]
1,GGACGTTA,-0.0978
2,AGTTGGTC,-0.188
3,ACTGTGAG,0.108
4,CGCAAAGC,-0.162
5,CTTTATCC,0.084
6,GCACACAC,-0.223
7,CAGTGTAG,0.161
8,AGAAAGAT,0.0209
9,ACACAGAT,0.213
10,AACTATAC,0.24
11,CAGGTGAG,0.0985
12,AAATTTCG,-0.104
13,ATTAGTCG,0.0293
14,ACATCATC,-0.0921
15,AGTACTTG,-0.115
16,ACCCACTC,0.0919
17,ATGCCGGA,0.217
18,AAGGTTTC,0.0148
19,AGGTTATC,0.111
20,CACCATAC,0.0902
21,ACAGTACG,-0.164
22,AATCACCA,-0.00782
23,TAGGATGA,0.199
24,GGGAAGAA,-0.185
25,GCTTCAGA,-0.286

row,Sequence,binding signal [E-score]
1,CAGGCGGC,-0.0438
2,CCTCGTTC,-0.0948
3,TACACAAA,0.00641
4,AAAAATTG,-0.268
5,CGAGTCCA,-0.0913
6,ACGATCTG,0.219
7,GAATCCGC,0.0932
8,GCGAGTCA,-0.199
9,GAGAATGC,-0.0136
10,ATTGTTTG,-0.217
11,TAGGGCAA,-0.163
12,AGGCTCGA,-0.024
13,GTCCGCCA,-0.154
14,ATTGTCTG,0.0874
15,CCGTCAAG,-0.205
16,TGCAAGCA,-0.174
17,ATTGCAAG,-0.00301
18,TCTTACCA,0.0472
19,CAGAGACG,0.103
20,GTCCATTA,-0.18
21,ACGCGAGA,0.138
22,AAGGTCAC,-0.182
23,GGGTAAAC,0.0272
24,ACATAGGG,-0.176
25,GTCTAAAA,-0.164

row,Sequence,binding signal [E-score]
1,AAGGGACA,-0.158
2,AAAATGCA,-0.147
3,CAGAAGGG,0.0385
4,AGGGACTA,-0.149
5,TGTAATAA,-0.081
6,AATTACCC,-0.03
7,GAAGACGA,0.185
8,CACTGCAG,-0.204
9,GCCATACA,-0.13
10,CCATGCAA,0.00377
11,AAACTGGC,-0.0878
12,ATGACAAA,-0.205
13,AAATCTTA,-0.133
14,AAAGTCGC,-0.14
15,CCTGCGCA,-0.109
16,AAAGCCAA,-0.322
17,CGCCCATC,0.0415
18,ATTGTCAA,0.0497
19,AATGGACC,-0.0751
20,ATGAGGAC,0.103
21,GAATGCAA,-0.197
22,ACTCATCT,-0.0072
23,AGCTTCAG,-0.183
24,GGGCACTA,-0.111
25,CCCAACCA,0.0273

row,Sequence,binding signal [E-score]
1,ATCGGGCG,0.107
2,GATAGTAC,0.212
3,CCCGCAGC,-0.0795
4,AAGTAGGT,-0.187
5,CACTGGGC,-0.0902
6,ACCGAGCC,-0.0194
7,AGAACAAG,0.0252
8,AGCCCACC,-0.154
9,ACCATTGG,0.122
10,AGAGCACG,-0.0729
11,AGCAACAG,-0.15
12,GAGTTATA,0.0269
13,TCTAGAGA,-0.0495
14,ATATCTAC,0.387
15,CGGCCGTC,-0.287
16,AGCGGAAG,-0.0825
17,AATACAGA,-0.0309
18,AGACGGTG,0.118
19,CCTCTAAG,0.0606
20,TAAGAGTA,0.0505
21,GAAAGGCA,-0.122
22,ACAACAAC,-0.229
23,AACATACA,0.0358
24,AGAGTAAG,-0.16
25,CGACAACA,-0.0476

row,Sequence,binding signal [E-score]
1,ACGTCACA,-0.208
2,ACTGTATA,0.239
3,CAGGAAAG,-0.135
4,ATTGAGTA,0.192
5,ATTCCTAG,-0.0102
6,ACAGCTCA,-0.2
7,AAGAGTGT,-0.0291
8,GATTTTCA,-0.216
9,CAGCGCAC,-0.256
10,ACTTTAAG,-0.0726
11,ACTCTTGC,-0.0799
12,CCAGAAGG,0.0442
13,CTGGCAGA,-0.0837
14,GTCCGTCA,-0.299
15,ACCGATTG,0.00258
16,ACTCAAGT,-0.111
17,CGATCGCA,0.284
18,ACTCCGCG,0.152
19,CTGGCGAC,-0.252
